{"source": "patent US12371675B2", "about": "“Process and microorganism for synthesis of adipic acid from carboxylic acids” (THE GOVERNING COUNCIL OF THE UNIVERSITY OF TORONTO, priority 2015, dated 2025)", "assay_in_all_cases": "purified protein, by the assay type", "conditions_in_all_cases": "pH 7.5", "key": {"O=C(O)CCCCC(=O)O": {"tested_on": "O=C(O)CCCCC(=O)O"}, "O=C(O)CCCCCO": {"tested_on": "O=C(O)CCCCCO"}, "O=C(O)CCCO": {"tested_on": "O=C(O)CCCO"}}, "data": [{"substance": "Mycobacterium abscessus carboxylate reductase MAB_4714c, SEQ ID NO: 36 (Mycobacteroides abscessus ATCC 19977)", "values": [{"measurement": "Km", "setting": "O=C(O)CCCCC(=O)O", "result": "35.87 ± 2.68", "unit": "mM"}, {"measurement": "kcat", "setting": "O=C(O)CCCCC(=O)O", "result": "3.21 ± 0.11", "unit": "s⁻¹"}, {"measurement": "kcat/Km", "setting": "O=C(O)CCCCC(=O)O", "result": "89.5 ± 3.07", "unit": "M⁻¹ s⁻¹"}, {"measurement": "Km", "setting": "O=C(O)CCCCCO", "result": "2.64 ± 0.13", "unit": "mM"}, {"measurement": "kcat", "setting": "O=C(O)CCCCCO", "result": "2.62 ± 0.03", "unit": "s⁻¹"}, {"measurement": "kcat/Km", "setting": "O=C(O)CCCCCO", "result": "995 ± 13", "unit": "M⁻¹ s⁻¹"}, {"measurement": "Km", "setting": "O=C(O)CCCO", "result": "26.52 ± 1.77", "unit": "mM"}, {"measurement": "kcat", "setting": "O=C(O)CCCO", "result": "1.88 ± 0.052", "unit": "s⁻¹"}, {"measurement": "kcat/Km", "setting": "O=C(O)CCCO", "result": "70.8 ± 1.96", "unit": "M⁻¹ s⁻¹"}]}]}
